Measured values taken from PubChem BioAssay AID686978 (National Center for Advancing Translational Sciences (NCATS), 2013).
Several values for one entry are separate records, joined by “and”; a condition that tells them apart may be missing. Identical values can stand only once. Screen size: about 420,000 compounds; about 64,000 (15%) were called active. Inconclusive results, whose numbers are uncertain, are shown with a selection of clear calls. The call rests on the fitted dose curve; in most records, active means well fitted inhibition curve with a large enough effect; inconclusive means small, poorly fitted or top-dose-only effect; inactive means flat fitted curve, though single readings scatter. Potencies of inconclusive entries are doubtful fits and often do not repeat.
Potency means the concentration at half of the fitted maximal effect; tags describe the fitted curve by direction and shape.

Experiment: qHTS for Inhibitors of human tyrosyl-DNA phosphodiesterase 1 (TDP1): qHTS in cells in absence of CPT; further: nearly all actives have a fitted effect of over 55% in size
Conditions: DT40 Tdp1-/- hTDP1 cells, no CPT, ATP luminescence, 48 h; series mostly up to 46.2 µM
In short: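 Readout: luminescence from CellTiter-Glo after 30 min in the dark at RT. Cells: DT40 Tdp1-/- with stable hTDP1, 400/well. Exposure: compounds alone, ≥48 hr, 37 °C.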
In the case of `O=C(Cc1ccc(NC(=O)C2CCCN(C(=O)CCc3ccccc3)C2)cc1)Nc1cccc(C(=O)N2CCCC2)c1` (configuration not stated), the Potency is reported as active: 13 µM. In the case of `C#CCOCCOCCOCCNc1nc(N2CCN(C(=O)Cn3cc(CC(C)O)nn3)CC2)nc(N2CCN(C(=O)[C@H](CCCCN)n3cc(CCC(=O)O)nn3)CC2)n1` (some centres not stated), the Potency is reported as “inactive”. For `O=C1/C(=C/c2ccc([N+](=O)[O-])cc2)CCC1C1CCCC1` (configuration not stated), the Potency was “inactive”. In the case of `O=C(Cc1c(F)cccc1Cl)NNC(=O)c1ccncc1`, the Potency is reported as “inactive”. In the case of `C=C1C[C@H](OC(=O)C(C)(O)CCl)C2C(=C)C(=O)O[C@@H]2C2C1C[C@H](O)[C@]2(O)CCl` (some centres not stated), the Potency is reported as active: 0.82 µM. For `O=c1[nH]cnc2n[nH]nc12`, the Potency was inconclusive: 14.1 µM [inhibitor, single point]. With `O=C(CCl)NC(Cc1ccccc1)c1ccccc1` (configuration not stated) the Potency was active: 23.1 µM. For `COc1ccc2c(c1)CCC(C)N2C(=O)C(=O)c1c[nH]c2ccccc12` (configuration not stated), the Potency was inconclusive: 23.1 µM [inhibitor, single point]. With `COc1cccc(C(=O)Nc2cccc(C(=O)OCc3cc(=O)n4c5c(sc4n3)CCCC5)c2)c1` the Potency was active: 18.4 µM. In the case of `C(=C\c1ccccc1)/CN1CCN(C(c2cc3ccccc3o2)c2nnnn2C2CCCC2)CC1` (configuration not stated), the Potency is reported as inconclusive: 29.1 µM [inhibitor, single point]. In the case of `CCc1nn(CCCC(=O)NCc2cc(Br)ccc2OC)c(=O)c2cc3occc3n12`, the Potency is reported as inconclusive: 16.4 µM [inhibitor, single point] and inconclusive: 29.1 µM [inhibitor, single point]. In the case of `COc1ccc(Cc2nn3c(-c4ccccc4OC)nnc3s2)cc1`, the Potency is reported as inconclusive: 13 µM [inhibitor, partial curve, poor fit]. With `COc1ccc(-n2c(C)csc2=S)cc1` the Potency was “inactive”. With `O=c1[nH]c(=O)n(C2CC(O)C(CO)O2)cc1Br` (configuration not stated) the Potency was inconclusive: 13 µM [inhibitor, partial curve]. With `C/C(=N/Nc1ccc(C(=O)c2c(C)cc3ccccn23)cc1[N+](=O)[O-])c1ccc(O)cc1` the Potency was inconclusive: 20.6 µM [inhibitor, partial curve, poor fit]. For `Cc1cccc(NS(=O)(=O)c2ccc3c(c2)OCC(C(=O)N2CCCC2)O3)c1C` (configuration not stated), the Potency was inconclusive: 29.1 µM [inhibitor, single point]. With `COCCNC(=O)C1(C)CCCN(Cc2noc(-c3ccccc3OC)n2)C1` (configuration not stated) the Potency was inconclusive: 23.1 µM [inhibitor, single point]. With `Nc1nonc1C(=O)NCCNCc1ccccc1` the Potency was “inactive”. For `Cc1ccc(-c2nnc(Nc3ccc(O)cc3)c3ccccc23)cc1S(=O)(=O)N1CCCCC1`, the Potency was active: 18.4 µM. For `Cc1c(C(=O)N2CCOCC2)sc(NC(=O)c2ccccc2F)c1C#N`, the Potency was “inactive”. In the case of `Cc1ccccc1C(=O)NCC(=O)OC(C)C(=O)Nc1cccc(S(=O)(=O)N2CCOCC2)c1` (configuration not stated), the Potency is reported as “inactive”. In the case of `O=c1c2cccnc2n(Cc2cccc(F)c2)c(=O)n1Cc1ccccc1Cl`, the Potency is reported as inconclusive: 25.9 µM [inhibitor, single point]. In the case of `CC1(C)CC(NC(=O)C2CCN(S(=O)(=O)c3ccc(Cl)c(C(F)(F)F)c3)CC2)CC(C)(C)N1`, the Potency is reported as inconclusive: 29.1 µM [inhibitor, single point]. With `CCCN(CCC)C(=O)Cc1ccc(F)cc1` the Potency was inconclusive: 29.1 µM [inhibitor, single point]. With `O=C(COC(=O)/C=C/c1ccc(C(F)(F)F)cc1)NCC1CCCO1` (configuration not stated) the Potency was inconclusive: 29.1 µM [inhibitor, single point]. In the case of `Cc1cc(C(=O)N2CC(C)CC(C)C2)n(-c2ccccc2)n1` (configuration not stated), the Potency is reported as active: 8.2 µM. In the case of `COc1cccc(C2CC3(CC(C)(C)NC(=S)N3)Oc3cc(O)ccc32)c1` (configuration not stated), the Potency is reported as active: 9.2 µM. In the case of `CCOC(=O)CSc1nc2c(sc3cccc(F)c32)c(=O)n1Cc1ccc(OC)cc1`, the Potency is reported as “inactive”. In the case of `NC(=O)c1ccc(Oc2ccc(Cl)cc2)c([N+](=O)[O-])c1`, the Potency is reported as inconclusive: 25.9 µM [inhibitor, single point]. For `CC(=O)c1c(N2CCN(Cc3ccccc3)CC2)[nH]c(-c2ccccc2)nc1=S`, the Potency was inconclusive: 25.9 µM [inhibitor, single point]. With `CC(=O)c1ccc(OC(=O)COc2ccccc2)cc1` the Potency was “inactive”. With `CCOc1ccc(OCc2ccc(C(=O)N/N=C(\C)c3ccccn3)cc2)cc1` the Potency was active: 0.651 µM. In the case of `Cc1ccc(Cn2c(SCC(C)C)nc3c2c(=O)n(C)c(=O)n3C)cc1`, the Potency is reported as active: 25.9 µM. With `COc1ccccc1N1CCN(C2CCCN(C(=O)c3csc(C)n3)C2)CC1` (configuration not stated) the Potency was inconclusive: 29.1 µM [inhibitor, single point]. For `COc1ccc(N(C(=O)CNC(=O)c2cccs2)C(C(=O)NCC2CCCO2)c2ccc(OC)c(OC)c2)cc1` (configuration not stated), the Potency was “inactive”. For `CCOC(=O)c1sc2nc(C)c3c(c2c1N)CC(C)(C)OC3`, the Potency was “inactive”. For `COc1cccc(C2CC(c3cccs3)=NN2C(=O)CSC2=NN3CCCC(=O)N=C3S2)c1OC` (configuration not stated), the Potency was inconclusive: 16.4 µM [inhibitor, single point]. For `NC(c1csc(Nc2cnccn2)n1)C1CCCCC1` (configuration not stated), the Potency was “inactive”. In the case of `Cc1ccc(C(=O)NNC(=O)Cn2nnc3ccccc32)cc1`, the Potency is reported as “inactive”. In the case of `CCSc1nnc(NC(=O)c2cc(-c3ccc(C)c(C)c3O)n[nH]2)s1`, the Potency is reported as inconclusive: 25.9 µM [inhibitor, single point]. With `COc1cc(OC)cc(C(=O)NC(C(=O)Nc2ccc3c(c2)OCO3)C(C)C)c1` (configuration not stated) the Potency was inconclusive: 29.1 µM [inhibitor, single point]. In the case of `CCCc1nc(SCc2cccnc2)c2c(=O)n(C)c(=O)n(C)c2n1`, the Potency is reported as active: 16.4 µM. In the case of `CCOc1ccc(S(=O)(=O)N2CCC(C(=O)NC3CCCC3)CC2)cc1`, the Potency is reported as “inactive”. In the case of `CS(=O)(=O)Cc1nc2ccccc2oc1=O`, the Potency is reported as active: 6.51 µM. In the case of `COc1cc(/C=N/NC(=O)NC23CC4CC(CC(C4)C2)C3)ccc1OCC(N)=O`, the Potency is reported as active: 8.2 µM. With `COC(=O)Nc1ccc(S(=O)(=O)N2CCC(C(=O)NCc3ccc4c(c3)OCO4)CC2)cc1` the Potency was “inactive”. In the case of `COC(=O)c1ccc(C(=O)N(Cc2ccccc2)c2ccccc2)cc1`, the Potency is reported as inconclusive: 25.9 µM [inhibitor, single point].
